Read counts are not given, so values of variants with three or more changes are uncertain.
B1: LINE1-mini (parent)
chain: GGCAGAGCUCAACACAGCGUGGCAAAGUGGCUGUGGCUAGACUGCC

Variants of: B1
Experiment: self-cleavage, relative activity (ratio to wild type); higher = more cleavage; in vitro, sequencing; the parent is a self-cleaving ribozyme
CGCACAGCUCAACACAGCGUGCCAAAGUGGCUGUGGCUAGACUGCC [G1C G5C G22C] showed a self-cleavage of 0.01.
Work on CGCAUACCUCAACACAGCGUGGCAUAGUGGCUGUGGCUAGACUGCC [G1C G5U G7C A25U] yielded a self-cleavage of 0.14.
Work on CGCAAAGCUCAUCGCAGCGUGGCAGAGUGGCGGUGGCUAGACUGCC [G1C G5A A12U A14G A25G U32G] yielded a self-cleavage of 0.03.
With CGCAGAACUCAACACAGCGUGGCAAAUUGGCUGUGGCUAGACUGCC [G1C G7A G27U] the self-cleavage was 0.03.
CUCAGAGCUCAACACAGCGUGGCAAAGUGGCGGUGGCUAGACUGCC [G1C G2U U32G] gave a self-cleavage of 0.02.
Variant CGCAAAGAUCAACACAGCGUGGCAAAGCGGGUGUGUCUAGACUGCC [G1C G5A C8A U28C C31G G36U] has a self-cleavage of 0.01.
CGCAGAACUUAACACAGCGUGGCAUAGUGGCUGUGGCUGGACUGCC [G1C G7A C10U A25U A39G] gave a self-cleavage of 0.
In the case of CGCAGAACUCAACAUAGCGUCGCAAAGUGGAUGUGGCUAGACUGCC [G1C G7A C15U G21C C31A], the self-cleavage is reported as 0.03.
CGCAGACCUUAACACAGCGUGGUAAAGUGGCUGUGGCUAGACUGCU [G1C G7C C10U C23U C46U] gave a self-cleavage of 0.01.
For CGCAUAGCCCAACACAGCGUGGGAAGAUGGCUGUGGCUUGACUGCC [G1C G5U U9C C23G A26G G27A A39U], the self-cleavage was 0.01.
For CGCAUAGCUCAACACAGUGUGGCAAAGUGGCUGUGGCUAGAAUGCC [G1C G5U C18U C42A], the self-cleavage was 0.02.
CGCAGAUCUCACCACAGCGUGGCAAAUUGGCUGUGGCUAGACUGCC [G1C G7U A12C G27U] gave a self-cleavage of 0.01.
CGCAGAACUCAACACAGGGCGUCAAAGUGGCUGUGGCUAGACUGCC [G1C G7A C18G U20C G22U] showed a self-cleavage of 0.02.
Variant CGCAGAACUCUACACAGCGUGGCAAAGUGGCUGUGGCUAGACUGCC [G1C G7A A11U] has a self-cleavage of 0.01.
Work on CGCACAGCUCAACACAGCGUGGCAAAGUUGCUGUGGCUAGACUGCC [G1C G5C G29U] yielded a self-cleavage of 0.03.
Work on CGCAUCGCUCUACACAGCGAGGCAAAGUGGCUGUGGCUAGACUGCC [G1C G5U A6C A11U U20A] yielded a self-cleavage of 0.
Variant CGCAAAGCUCAACACAGCGAGUCAAACUGGCUGUGGGUAGACUGCC [G1C G5A U20A G22U G27C C37G] has a self-cleavage of 0.01.
In the case of CGCAUAGCGCAACUCAGCGUGUCAAAGUCGCUGUGGCUAUACUGCC [G1C G5U U9G A14U G22U G29C G40U], the self-cleavage is reported as 0.01.
With CGCAGACCUCAACACAGCGUGGCAAAGUGGCUGUGGCUAGUCUGCC [G1C G7C A41U] the self-cleavage was 0.01.
Work on CGCAGACCUCAACACAGCUUGGCAAAGUGGCUGUGGCUAGACUGCC [G1C G7C G19U] yielded a self-cleavage of 0.02.
CGCAGACCUCAACACAGCCUGGCAAAGUGGCUGUGGCUAGACUGCC [G1C G7C G19C] gave a self-cleavage of 0.03.
CGCACAGCUCAACACAACGUGGUAAAGUGGCUGUGGCUAGACUGCC [G1C G5C G17A C23U] gave a self-cleavage of 0.02.
With CGCAAAGCUCAACACAGCGUGGCAAAGCGGCUGUGGCUGGACUGCC [G1C G5A U28C A39G] the self-cleavage was 0.03.
With CGCACGGCUCAACACAGCGUGGCAAAGUGGCUGUGGCUUGAUUGCC [G1C G5C A6G A39U C42U] the self-cleavage was 0.01.
Work on CGCAUAGCUCAACAAAGCGUGGCCAAGUGGCUGUUGUUAGACUGCC [G1C G5U C15A A24C G35U C37U] yielded a self-cleavage of 0.
In the case of CGCAAAGGUCAACACAGCGUGGCAAAGUGGCUGUUGCUGGACAGCC [G1C G5A C8G G35U A39G U43A], the self-cleavage is reported as 0.02.
In the case of CGCAAAGCCCAACACAGCGUGGCCAAGUGGCUGUGGUUAUACUGCC [G1C G5A U9C A24C C37U G40U], the self-cleavage is reported as 0.02.
Work on CGCAUAGCUCAACUCAGCGUGGUAAACUGACUGUGGCCAGACUGCC [G1C G5U A14U C23U G27C G30A U38C] yielded a self-cleavage of 0.03.
CGCAAAGCUCAACACAGCGUUGCAAAGUGGCCGUGGCUAGACUGCC [G1C G5A G21U U32C] showed a self-cleavage of 0.01.
With CGCACAGCUCAACACAGCGUGGCUAAGUGACUGUGGCUAGACUGCC [G1C G5C A24U G30A] the self-cleavage was 0.07.
CGCAGAUCUCAACACUGCGUGGCAAAGCGGCUGUGGCAAGACUGCC [G1C G7U A16U U28C U38A] showed a self-cleavage of 0.03.
CGCAGAACUCAACACAGCGUGGCAAAGUGCCUGUGGCUAGACUGCC [G1C G7A G30C] showed a self-cleavage of 0.06.
For CUCAGAGCGCAACACAGCGUGGCAAAGUGGCUGUGGCUAGACUGCC [G1C G2U U9G], the self-cleavage was 0.04.
Work on CGCAAAGCUCAACACAGCGUGGCAAAGUGGCCGUGGCUAGACUCCC [G1C G5A U32C G44C] yielded a self-cleavage of 0.04.
Variant CGCAGACCUCAGCACAGCCUGGCAAAGUGGCUGUGGCUAGACUGCC [G1C G7C A12G G19C] has a self-cleavage of 0.
For CGCAGAACUCAACACAGCGUGGCAAAGUGGCUGGGGCUAGACUGCC [G1C G7A U34G], the self-cleavage was 0.04.
With CGCAGACCUCAACACAGCGUGGUAAAGUGGCUGUGGCUAUACUGCC [G1C G7C C23U G40U] the self-cleavage was 0.
Work on CGCAUGGCUAAACACAGCGUGGCAAAGUGGCUGUGGCUAGACUGCA [G1C G5U A6G C10A C46A] yielded a self-cleavage of 0.
CGCACAGCUCAACACAGCGUGGCCAAGUUUCUGUGGCUAGACUGCC [G1C G5C A24C G29U G30U] gave a self-cleavage of 0.03.
In the case of CGCAAAGAUCAACACAGCGUAGCAAAGUGGCUGUGGCUAGACUGCU [G1C G5A C8A G21A C46U], the self-cleavage is reported as 0.46.
In the case of CGCAGAACUCUACACAGCGUGGCAAAGUUACCGUGGCUAGUCUGCC [G1C G7A A11U G29U G30A U32C A41U], the self-cleavage is reported as 0.01.
CGCAAAGCACAACACAGCGUGGCACAGGGUCUGUGGCUAGACUGAC [G1C G5A U9A A25C U28G G30U C45A] gave a self-cleavage of 0.03.
In the case of CGCACAGCUCAACACAGCGUGGCAAUGUGGCUGUGGCUAGACUGCC [G1C G5C A26U], the self-cleavage is reported as 0.03.
In the case of CGCAAAGCUCAACACUGCGUGGCAAAGUGGCUGUGGCUAGACUGCC [G1C G5A A16U], the self-cleavage is reported as 0.
Work on CGCAGAUCUCAGCACAGCGUGGCAAUGUGGCUGUGGCUAGACUGCC [G1C G7U A12G A26U] yielded a self-cleavage of 0.01.
For CGCACAGCUCAACACAGCGUGGCAAUGUGGCUGUGGCUAAACUGCC [G1C G5C A26U G40A], the self-cleavage was 0.03.
In the case of CGCAGAACUCAACACUGCGUGGCAAAGUCGCCGUGGCUAGACUGCA [G1C G7A A16U G29C U32C C46A], the self-cleavage is reported as 0.01.
With CGCACAGCUCGACGCAGCGUGGCAAAGUGGCUGUGGCUAGACUGCC [G1C G5C A11G A14G] the self-cleavage was 0.
CGCAUAGUUCAACACAGCGUGGCAAAGUGGCUGUAGCUAGACUGCC [G1C G5U C8U G35A] gave a self-cleavage of 0.02.
In the case of CGCAGAUCUCAACUCAGCGUGGCAAAGUGGCUGCGGCUAGACUGCC [G1C G7U A14U U34C], the self-cleavage is reported as 0.04.
In the case of CGCAUCGCUCAGCACAACGAGGCAAAGUGGCUCUGGCUAGGCUGCC [G1C G5U A6C A12G G17A U20A G33C A41G], the self-cleavage is reported as 0.01.
CGCAGAACUCGACACAGCGUGGCAAAGUGGCUGUGACUAAACUGCC [G1C G7A A11G G36A G40A] gave a self-cleavage of 0.01.
In the case of CGCAGAACUCAACCCAGCAUGGCAAAGUGGCUCGGGCUAGACUGCC [G1C G7A A14C G19A G33C U34G], the self-cleavage is reported as 0.01.
CGCAAAGCUCAACACAGCGUGGCAAAGUAGCUGUGGCUAGACUGCC [G1C G5A G29A] showed a self-cleavage of 0.08.
Work on CGCAUCGCUCAACACAGCGGGGCAAAGUGGCUGUGGCUAUACUGCC [G1C G5U A6C U20G G40U] yielded a self-cleavage of 0.02.
In the case of CGCAAAGCUCACCACAGCGUGGCAAAGUUGCUGUGGCUAGACUGCC [G1C G5A A12C G29U], the self-cleavage is reported as 0.01.
